About 220 (0.56%) of roughly 39,000 compounds showed activity. This is one part of the list.
system: Escherichia coli K-12 BW25113; assay: relative growth (OD600 normalised to plate interquartile mean) (fraction); higher = less growth inhibition, active = 0.2 or less; settings: 50 µM; LB; incubation time: overnight (16-24 h)
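Further: static incubation at 37 °C against the wild-type strain, values averaged over two biological replicates.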

| SMILES | relative growth |
| --- | --- |
| C[C@H](CO)N1C[C@H](C)[C@H](CN(C)C(=O)Nc2ccccc2)OCCCC[C@H](C)Oc2ccc(NC(=O)Cc3ccccc3)cc2C1=O | inactive: 1.01 |
| COc1ccc(CN(C)C[C@@H]2OCCCC[C@@H](C)Oc3ccc(NC(=O)C4CCCCC4)cc3C(=O)N([C@H](C)CO)C[C@@H]2C)cc1 | inactive: 1.01 |
| CN(C)CCCN1c2ccccc2Sc2ccc(Cl)cc21.Cl | inactive: 0.769 |
| C[C@@H]1CCCCO[C@@H](CN(C)Cc2ccc(C(=O)Nc3ccccc3N)cc2)[C@@H](C)CN([C@H](C)CO)C(=O)c2cc(NC(=O)Nc3ccc4c(c3)OCO4)ccc2O1 | inactive: 1.02 |
| COc1ccc(NC(=O)Nc2ccc3c(c2)C(=O)N([C@@H](C)CO)C[C@@H](C)[C@H](CN(C)Cc2ccc(C(=O)O)cc2)OCCCC[C@H](C)O3)cc1 | inactive: 1.01 |
| C[C@H](NC(=O)C[C@H]1C=C[C@@H](NC(=O)CN2CCOCC2)[C@H](CO)O1)c1ccccc1 | inactive: 1 |
| Cc1ccccc1S(=O)(=O)N1C[C@H](O)COC[C@@H]2O[C@@H](CC(=O)N3CCOCC3)CC[C@H]21 | inactive: 1.02 |
| C[C@@H]1CN([C@@H](C)CO)C(=O)Cc2cc(NC(=O)Nc3ccc(F)cc3)ccc2O[C@H]1CN(C)C(=O)Nc1ccc(C(F)(F)F)cc1 | inactive: 1 |
| C[C@@H]1CN([C@H](C)CO)C(=O)Cc2cc(NC(=O)NC3CCCCC3)ccc2O[C@@H]1CN(C)Cc1ccc(C(F)(F)F)cc1 | inactive: 0.982 |
| O=C(C[C@@H]1CC[C@@H](NC(=O)c2cccnc2)[C@@H](CO)O1)NCCN1CCCCC1 | inactive: 1.01 |
| O=C(C=Cc1ccc(O)cc1)c1ccc(O)cc1O | inactive: 1.02 |
| CS(=O)(=O)N1CCCn2c(nc(CNC(=O)CC3CC3)cc2=O)C1 | inactive: 1 |
| C[C@@H]1CN([C@@H](C)CO)C(=O)c2cc(NC(=O)Nc3cccc4ccccc34)ccc2O[C@@H](C)CCCCO[C@H]1CN(C)C | inactive: 1.01 |
| COC(=O)c1sccc1NC(=O)Cn1cnc2c1c(=O)n(C)c(=O)n2C | inactive: 1.02 |
| CCc1c(C(=O)OC)nnc2cc(C)nn12 | inactive: 1.02 |
| C=C(C)[C@H]1CC=C(C)CC1 | inactive: 1.01 |
| C#Cc1nccnc1OC | inactive: 0.913 |
| C[C@@H]1CN([C@@H](C)CO)C(=O)c2cc(NC(=O)Nc3ccc(F)cc3)ccc2O[C@@H](C)CCCCO[C@H]1CN(C)C(=O)c1ccccc1 | inactive: 0.99 |
| COCC(=O)N1[C@@H]2CC[C@H]1COC2 | inactive: 1.02 |
| C[C@H]1CCCCO[C@H](CN(C)S(=O)(=O)c2cn(C)cn2)[C@@H](C)CN([C@@H](C)CO)C(=O)c2cc(NS(=O)(=O)c3ccccc3)ccc2O1 | inactive: 1.03 |
| CC1(C)CC2C(=O)CCC3OC3(C)CCC21 (centres undefined) | inactive: 0.946 |
| CC(=O)N1[C@H](CO)[C@H](c2ccccc2)[C@H]1CNC(=O)CN1CCOCC1 | inactive: 1 |

| SMILES | relative growth |
| --- | --- |
| COc1ccccc1CN1C(=O)c2ccccc2[C@@]2(Cc3ccccc3N(C(C)C)C2=O)[C@@H]1c1ccc(CO)cc1 | inactive: 1.03 |
| C[C@H](CO)N1C[C@H](C)[C@H](CN(C)Cc2ccc3c(c2)OCO3)Oc2ccc(NS(C)(=O)=O)cc2C1=O | inactive: 0.982 |
| COc1ccc(S(=O)(=O)Nc2ccc3c(c2)C(=O)N([C@H](C)CO)C[C@@H](C)[C@@H](CN(C)S(=O)(=O)c2ccccc2)O3)cc1 | inactive: 1.01 |
| O=C(c1cn(Cc2cncn2Cc2ccc(Br)cc2)cc1-c1cccc2ccccc12)N1CCOCC1 | inactive: 1.04 |
| CCOC[C@]12Cc3cnn(-c4ccc(F)cc4)c3C=C1CCN(S(=O)(=O)c1ccc(C(F)(F)F)cc1)C2 | inactive: 0.977 |
| C[C@@H]1CN([C@@H](C)CO)C(=O)c2cc(NC(=O)CCN3CCOCC3)ccc2O[C@H]1CN(C)S(=O)(=O)c1cn(C)cn1 | inactive: 0.995 |
| Cc1noc(C)c1NC(=O)N(C)C[C@@H]1OCCCC[C@H](C)Oc2ccc(NS(=O)(=O)c3ccccc3)cc2C(=O)N([C@@H](C)CO)C[C@H]1C | inactive: 1.01 |
| NC[C@H]1CCN(c2ccc(Oc3ccccc3)cc2)C1 | inactive: 0.669 |
| Cc1noc(C)c1S(=O)(=O)N(C)C[C@H]1OCc2cn(nn2)CCCC(=O)N([C@@H](C)CO)C[C@@H]1C | inactive: 1 |
| C[C@H](CO)N1C[C@H](C)[C@@H](CN(C)Cc2ccc(C(F)(F)F)cc2)OCCCC[C@H](C)Oc2ccc(NS(=O)(=O)c3cn(C)cn3)cc2C1=O | inactive: 0.997 |
| O=C(Nc1ccccc1)c1ccccc1O | inactive: 0.534 |
| COc1ccc(S(=O)(=O)Nc2ccc3c(c2)OC[C@@H](C)N(C)C[C@@H](C)[C@H](OC)CN(C)C3=O)cc1 | inactive: 1.03 |
| C[C@H](CO)N1C[C@H](C)[C@H](CN(C)C(=O)C2CCOCC2)Oc2ncc(C#CC3(O)CCCC3)cc2C1=O | inactive: 0.996 |
| C[C@@H]1CCCCO[C@@H](CN(C)C(=O)Cc2ccccc2)[C@H](C)CN([C@H](C)CO)C(=O)c2cc(NC(=O)C3CCCCC3)ccc2O1 | inactive: 0.99 |
| COc1ccc(C#Cc2cnc3c(c2)C(=O)N([C@@H](C)CO)C[C@H](C)[C@@H](CN(C)C(=O)CC2CC2)O3)cc1 | inactive: 1.02 |
| CC(C)c1nc(/N=C/N(C)C)nc(=O)n1C | inactive: 1 |
| C[C@H]1CN([C@@H](C)CO)C(=O)c2c(c3ccccc3n2C)-c2ccccc2CO[C@H]1CN(C)C(=O)Nc1ccccc1C(F)(F)F | inactive: 0.997 |
| C[C@@H]1CN([C@H](C)CO)C(=O)c2cccc(NS(=O)(=O)c3cn(C)cn3)c2O[C@H]1CN(C)C(=O)Nc1ccc2c(c1)OCO2 | inactive: 0.986 |
| CC(C)NC(=O)N(C)C[C@H]1Oc2ccc(NS(=O)(=O)c3cccs3)cc2C(=O)N([C@@H](C)CO)C[C@@H]1C | inactive: 0.99 |
| COc1ccc(NC(=O)N(C)C[C@@H]2Oc3ccc(NC(=O)C4CC4)cc3C(=O)N([C@@H](C)CO)C[C@@H]2C)cc1 | inactive: 0.999 |
| NCC[C@@H]1CC[C@@H](NC(=O)C2CCC2)[C@H](CO)O1 | inactive: 1 |
| C[C@@H]1CN([C@H](C)CO)S(=O)(=O)c2ccc(C#CC3CC3)cc2O[C@@H]1CN(C)Cc1ccccc1F | inactive: 0.92 |

| SMILES | relative growth |
| --- | --- |
| CCS(=O)(=O)Nc1ccc2c(c1)C(=O)N(C)[C@H]1CC[C@@H](CC(=O)NCc3ccccc3F)O[C@H]1CO2 | inactive: 1 |
| C[C@H](CO)N1C[C@H](C)[C@H](CN(C)S(=O)(=O)c2ccc(F)cc2)OCCCC[C@H](C)Oc2ccc(NC(=O)CCCCCC(=O)Nc3ccccc3N)cc2C1=O | inactive: 0.999 |
| CN1CCN(C(=O)C[C@H]2C[C@@H]3c4cc(NC(=O)c5ccc6c(c5)OCO6)ccc4O[C@@H]3[C@H](CO)O2)CC1 | inactive: 0.987 |
| Cc1noc(C)c1NC(=O)Nc1ccc2c(c1)C(=O)N([C@H](C)CO)C[C@H](C)[C@H](CN(C)C(=O)Nc1cccc3ccccc13)OCCCC[C@H](C)O2 | inactive: 0.967 |
| C[C@H]1COC(=O)[C@@H](Cc2ccc(F)cc2)CCC=CC[C@@H](CC(=O)N[C@@H](CO)Cc2ccccc2)C(=O)N1 | inactive: 0.986 |
| COc1ccc(CN(C)C[C@H]2OCCCC[C@@H](C)Oc3ccc(NS(=O)(=O)c4ccc(F)cc4)cc3C(=O)N([C@@H](C)CO)C[C@@H]2C)cc1 | inactive: 1.01 |
| C[C@H](CO)N1C[C@H](C)[C@@H](CN(C)CC2CCCCC2)OCCCC[C@H](C)Oc2ccc(NC(=O)NC3CCCCC3)cc2C1=O | inactive: 1.01 |
| COc1ccc(NC(=O)N(C)C[C@@H]2OCCCC[C@@H](C)Oc3ccc(NC(=O)Nc4ccc(F)cc4)cc3C(=O)N([C@H](C)CO)C[C@H]2C)cc1 | inactive: 1.03 |
| CN(C)CCCn1ccnc1-c1cnc(N)nc1 | inactive: 0.996 |
| O=C(O)CCc1nc2ccccc2[nH]c1=O | inactive: 0.998 |
| CC(C)CC#Cc1ccc2c(c1)O[C@H](CN(C)C(=O)c1ccncc1)[C@@H](C)CN([C@H](C)CO)S2(=O)=O | inactive: 0.993 |
| C[C@H]1CN([C@@H](C)CO)C(=O)Cc2cc(NC(=O)Nc3cccc4ccccc34)ccc2O[C@@H]1CN(C)S(=O)(=O)c1ccc(Cl)cc1 | inactive: 1.04 |
| Cc1ccc(S(=O)(=O)Nc2ccc3c(c2)CC(=O)N([C@@H](C)CO)C[C@@H](C)[C@@H](CN(C)Cc2ccc(C(F)(F)F)cc2)O3)cc1 | inactive: 1 |
| CCCC#Cc1cnc2c(c1)C(=O)N([C@@H](C)CO)C[C@@H](C)[C@@H](CN(C)S(=O)(=O)c1cn(C)cn1)O2 | inactive: 1.01 |
| C[C@@H]1CN([C@@H](C)CO)C(=O)CCCn2cc(nn2)CO[C@@H]1CN(C)C(=O)C1CC1 | inactive: 0.968 |
| Cc1noc(C)c1S(=O)(=O)Nc1ccc2c(c1)CC(=O)N([C@H](C)CO)C[C@H](C)[C@@H](CN(C)C(=O)Nc1ccc3c(c1)OCO3)O2 | inactive: 1 |
| COc1ccc(NC(=O)Nc2ccc3c(c2)C(=O)N([C@H](C)CO)C[C@H](C)[C@@H](CN(C)C(=O)c2ccccc2)OCCCC[C@H](C)O3)cc1 | inactive: 1 |
| C[C@@H]1CCCCO[C@@H](CN(C)C(=O)Nc2ccccc2)[C@H](C)CN([C@@H](C)CO)C(=O)c2cc(NC(=O)Nc3ccc4c(c3)OCO4)ccc2O1 | inactive: 0.999 |
| COC1(NC(=O)C2SC(=C(C(N)=O)C(=O)O)S2)C(=O)N2C(C(=O)O)=C(CSc3nnnn3C)CSC21 (centres undefined) | active: 0.0448 |
| CCO[C@@H]1OC(C(=O)N2CCN(Cc3ccccc3)CC2)=C[C@H](c2ccc(C(F)(F)F)cc2)[C@H]1CCCOC(=O)NCCCCCC(=O)NO | inactive: 0.967 |
